Experimental data as given in ChEMBL document CHEMBL4888484, “Replenishing the malaria drug discovery pipeline: Screening and hit evaluation of the MMV Hit Generation Library 1 (HGL1) against asexual blood stage Plasmodium falciparum ,using a nano luciferase reporter read-out” (2022).
Several values for one entry are separate records, joined by “and”; a condition that tells them apart may be missing. Equal entries are not always repeated. Among all 150,000 compounds or so, about 540 (0.36%) showed an effect of 50% or more. The list shows a part of the results.

Tested on: Plasmodium falciparum
Experiment: Primary screen in NF54 nanoGlo assay, in single point, at 2uM, 72h; a lower Z score goes with more inhibition
Format: functional, Erythrocyte
Details: timepoint 72 hour

Structure (SMILES)	% Inhibition [%]	Z score	% Inhibition (2 µM)
Cc1ccc(Cl)cc1N1CCN(c2ncnc(N3CCOCC3)c2C#N)CC1	-25	2.53	
Cc1cccnc1[C@H](C)NC(=O)C1(C)COC1	-9	0.92	
Cc1ccc(OCC(=O)Nn2c(=O)[nH]c3ccccc3c2=O)c(C(C)C)c1	-5	0.65	
O=C(Cn1nnnc1CN1CCCCCC1)N1CCN(Cc2ccc(F)cc2)C(=O)C1	-6	1.18	
CC1CCN(CCCc2noc(C(C)(C)NS(C)(=O)=O)n2)CC1	-8	1.4	
Cc1ccc(C(=O)NCC(F)(F)F)cc1N	-6	0.55	
Cn1cc(C(O)CC2CCCN2CCCOc2ccc3c(c2)OCO3)cn1 (stereo not drawn)	-13	1.68	
CCc1nc(C)c(-c2c(-c3ccccc3)ncn2CCn2cc(C)nn2)[nH]1	2	-0.29	
Cc1nsc(NCc2ccc3c(c2)nc(C2CC2)n3C)n1	2	-0.2	
Nc1cc2cc(-c3cccc(C(=O)NCC4CCNCC4)c3)ccc2cn1	-10	1.48	
CCC(C)(C)C(=O)Nc1c(C)cc(C)cc1C	-5	0.89	
Cc1nc(Cc2ccccc2F)[nH]c(=O)c1CCO	2	-0.39	
Cc1ccc(C(=O)NCCn2c(C)cnc2C2CCOCC2)s1	-1	0.13	
COC(=O)[C@H]1CC[C@@H](NC(=O)Nc2ccc(F)cc2OC(F)F)C1	-4	0.67	
Cn1c(=O)c(C(=O)N2CCN(C(c3ccccc3)c3ccccc3)CC2)cc2cccnc21	-16	2.04	
OCc1csc(CNc2ccc3oc(C4CC4)nc3c2)n1	-14	1.61	
CCn1c(-c2cc(C)oc2C)nnc1N1CCCN(C(C)=O)CC1	-15	2.89	
COc1ccc(C)cc1NC(=O)Cn1cnc2c(nc3n2CCCCC3)c1=O	-3	0.54	
O=C(NC[C@@H](CO)Cc1ccccn1)c1ccc(F)c(S(=O)(=O)N2CCC2)c1	-14	2.48	
O=C(OCc1nnnn1-c1ccccc1)[C@@H]1Cc2cc(Cl)ccc2O1	-1	0.15	
COCCc1noc([C@H]2CCC(=O)N(Cc3ccccc3OC)C2)n1	-4	0.67	
Cc1ccc([C@H](CCO)NC(=O)C2(N3CCCC3)CCCCC2)cc1	-2	0.38	

Structure (SMILES)	% Inhibition [%]	Z score	% Inhibition (2 µM)
O=C(CCCN1CCCC1=O)NCC[C@H]1CCCOC1	-2	0.3	
CCOC(=O)CNC(=O)NCc1ccc2c(c1)CCN2C(=O)CC	-7	1.29	
COc1c[nH]c(C(=O)N2CCO[C@H](c3ccccc3)C2)cc1=O			-17% and -1%
CCCS(=O)(=O)CC(=O)Nc1cccc(F)c1C	-3	0.42	
CCC(Nc1ncnc2c1cnn2C)C1CCCCO1 (stereo not drawn)	-6	1.1	
COc1cc(-c2ncc(C(=O)NCc3ccccn3)c(N(C)Cc3ccccc3)n2)cc(OC)c1OC	-4	0.51	
COc1ccc(Cl)cc1NC(=O)C[C@H]1CCCCN(C)C1=O	-15	2.94	
CCC(=O)N1CCCc2cc(S(=O)(=O)N3CCC(C(=O)Nc4cccc(Cl)c4)CC3)ccc21	3	-0.38	
CCC1COC(C)CN1Cc1cc(C)on1 (stereo not drawn)	-2	0.25	
CCc1nc(C)c(CNC(=O)CC[C@@H]2CCCN3CCCC[C@H]23)s1	-5	0.76	
C[C@H](NCc1c(C(=O)N2CCCCCCC2)nc2ccc(Cl)cn12)c1ccc(F)cc1	12	-1.58	
N#Cc1ccc(N2CCC[C@H](C(N)=O)C2)cn1	-8	1.21	
CN1CCN(C(=O)CCc2cccnc2)CC1	1	-0.11	
O=C(Nc1ccc2c(c1)CCC2)[C@H]1CNC[C@@H](C(=O)N2CCCC2)C1	-4	0.47	
CCCCn1c(=O)[nH]c2c(C(=O)N3CCC(C)CC3)snc2c1=O	-14	2.22	
CC(C)(Oc1ccc2c(c1)CCC2)C(=O)N[C@@H]1C[C@H]2OCC[C@@H]12	-19	2.11	
Cc1ccc(C)n1-c1c(C(=O)NCc2ccc(N(C)C)cc2)sc2ncccc12	-9	0.86	
Cc1occc1C(=O)N1CCO[C@H](C(=O)NCCc2ccccn2)C1	-12	1.55	
CCc1cc(NCC2(OC)CCOCC2)nc(CC)n1	5	-0.67	
CCOC1CC(NC(=O)C2CC2C)C12CCC2 (stereo not drawn)	-11	1.55	
O=C(c1csc(=O)[nH]1)N1CCOCC12CCC2	-10	1.39	
Cc1ccc(-c2ccc(OC(=O)c3cnc(C)cn3)cc2)cc1	-6	0.91	

Structure (SMILES)	% Inhibition [%]	Z score	% Inhibition (2 µM)
CCCCc1noc(CNC(C)C(C)n2cccn2)n1 (stereo not drawn)	-4	0.68	
C[C@H]1CS(=O)(=O)C[C@H]1NC(=O)c1ccc(C(F)(F)F)c(=O)[nH]1	-8	1.07	
Cc1cc(C(=O)N2CCN(c3cc(N4CCOCC4)ncn3)CC2)co1	4	-0.44	
C=CCn1cc(CN2CCN(Cc3ncc[nH]3)[C@H]3CS(=O)(=O)C[C@H]32)cn1	-7	1	
CC(C)N(C[C@H]1CCC(=O)N1)C(=O)c1cn(C(c2ccccc2)c2ccccc2)nn1	-1	0.1	
COc1nc(C)nc(NCc2c(C)noc2C)c1C	28	-3.57	
CCCc1cc(C(=O)N2CCC3(CC2)C(=O)N(C)c2ccccc23)no1	-7	0.92	
CC(C)N1CCO[C@@H](CC(=O)NCc2csc(N)n2)C1	-10	1.25	
Cc1ccc(S(=O)(=O)N2CCC(c3nc(C(=O)N(C)C)c(C)o3)CC2)c(C)c1	-1	0.16	
CC(C)c1nnsc1CN(C)C[C@H]1CCCCO1	3	-0.54	
CCOc1cnc(C(=O)N2CCC3(CC2)NC(=O)[C@H](C)O3)cn1	3	-0.61	
CN(C)[C@H]1CCN(c2c(C#N)cccc2C#N)C1	11	-1.35	
Cc1nonc1Cc1ncnn1CC(F)(F)F	-8	1.55	
O=C(CC1CCCC1)NC1CCCCC1	-6	0.79	
Cc1nc(-c2cccs2)sc1C(=O)Nc1ccc2[nH]c(=O)[nH]c2c1	13	-1.48	
Cc1cc(C)n(-c2ccc(CCNC(=O)[C@@H]3CCCO3)cc2)n1	-5	0.61	
CCC12OC3C(O)C4CC3C1C4C(=O)N2c1ccccc1OC (stereo not drawn)	-24	2.22	
CN(c1ccc(F)cc1)S(=O)(=O)c1ccc2c(c1)C(=O)Nc1ccccc1O2	-16	2.3	
Cc1cccc(C(C)NCCC(C)O)c1C (stereo not drawn)	3	-0.3	
CC(C)c1ccc(O)c(C(=O)NCC(=O)NCC(F)(F)F)c1	-5	0.68	
c1ccc2c3c(ccc2c1)OCN(c1ccc2c(c1)OCCO2)C3	-7	0.97	
Cc1ccc2c(c1)CCCN2C(=O)c1cnn(-c2ccncc2)c1C	-4	0.55	

Structure (SMILES)	% Inhibition [%]	Z score	% Inhibition (2 µM)
CC[C@H](C)CN(CC(=O)N1CCN(c2ccc(-c3cccc(OC)c3)nn2)CC1)C(=O)c1cccc(F)c1	-3	0.44	
CCCCc1nc(CN2CCc3onc(-c4ccc5c(c4)OCO5)c3C2)c[nH]1	-12	1.64	
CC#CCN1CCC=C(CCNC(=O)C2CCCCC2)C1	8	-1.5	
CCc1nc(C)c(C(=O)Nc2nnc(C(F)(F)F)[nH]2)o1	30	-3.39	
N[C@@H](Cc1c[nH]cn1)c1ncnn1-c1ccc(C(F)(F)F)cc1	-8	1.28	
CCC(=O)Nc1ccc(C(=O)Cn2cc(Br)cn2)cc1	-14	2.93	
O=C(Nc1ccccc1)c1ccc(=O)n(CCC(=O)N2CCCCCC2)n1	-1	0.09	
NC(=O)CN(CCCC1CCCCC1)CC(N)=O	-5	0.91	
COc1ccc(NC(=O)C(=O)Nc2c(C)n[nH]c2C)c(OC)c1	-15	1.5	
COc1cc(C)sc1C(=O)NCCc1sc(N(C)C)nc1C	-5	0.72	
CCCc1nc(C(=O)NC(C)(C)c2nnc(N)s2)cs1	-9	1.03	
CCCC[C@H]1C(=O)N(C)CCN1C(=O)CCc1scnc1C	-3	0.37	
Cc1cc(C(=O)Nc2nc3ccccc3[nH]2)c(C)o1	0	-0.02	
CNc1nc(NCc2ccc3[nH]c(-c4ccccc4F)c(C)c3c2)ncc1F	-18	2.15	
CCc1nc(NC(=O)CN(C)CC[C@H]2CCCCN2C)sc1C	-13	1.37	
Cn1c(=O)c2c(ncn2CC(=O)N2Cc3cnnn3Cc3ccccc32)n(C)c1=O	13	-1.65	
Cc1nn(C)c(C)c1S(=O)(=O)NC(=O)CCc1ccco1	0	-0.04	
O=C(CN1CCCCCC1)NC1CCCC1	-9	1.47	
Cc1cc(OCC2CC2)n2nc(C)cc2n1	-12	1.52	
Cc1ccc(C)c(C2CN(C(=O)CCC3CCNCC3)C(C)CO2)c1 (stereo not drawn)	-7	1.08	
Cc1cccc(NC(=O)Cn2cnc3c(C(N)=O)nsc3c2=O)c1C	-8	1.08	
